Source: paper PMC7468457
These are yes or no findings as the source states them, for the method shown. Binding seen in cells or lysates may run through a third protein. Some results given as binding are weak or reduced against the parent protein; the word gives no strength. For some of these results: Where a sequence is shown, tags or fusion partners need not be part of it. Each block holds one molecule with its values, some of them ahead of it.

Sequences of proteins named here, by UniProt entry; tags and fusion partners are left off.
UniProt P50148: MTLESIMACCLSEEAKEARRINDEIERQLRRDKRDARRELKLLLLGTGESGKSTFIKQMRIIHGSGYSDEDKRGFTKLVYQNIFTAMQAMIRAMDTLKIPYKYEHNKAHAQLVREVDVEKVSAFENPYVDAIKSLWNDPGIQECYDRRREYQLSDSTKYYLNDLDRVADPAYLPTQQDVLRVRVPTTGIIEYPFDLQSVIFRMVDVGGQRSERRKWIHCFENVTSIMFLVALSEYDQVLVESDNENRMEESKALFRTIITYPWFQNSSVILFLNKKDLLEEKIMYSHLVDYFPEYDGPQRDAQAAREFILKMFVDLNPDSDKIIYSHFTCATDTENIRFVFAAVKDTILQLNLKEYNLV

Key:
HA-AT1R (human) = HA-AT1R (human) (UniProt P30556); test: co-IP; HEK293 lysates, equal Rluc input; anti-HA antibody and protein A agarose at 4°C; Rluc luminescence measured directly on the immunoprecipitates
[1] = molecular target: AT1R-Rluc (AngII type 1 receptor fused to Renilla luciferase) (human) (UniProt P30556); test: FRET or BRET; BRET saturation in live HEK293 cells: constant AT1R-Rluc (25 ng plasmid) with increasing PAR1-Venus or Grb2-Venus (10-175 ng); net BRET plotted over Venus/Rluc ratio; room temperature; PBS
[2] = molecular target: T1, PAR1-Rluc (protease-activated receptor 1 fused to Renilla luciferase) (human) (UniProt P25116); test: FRET or BRET; ligand-induced BRET in live HEK293 cells co-expressing an Rluc-tagged receptor (donor) and Venus-Gαq or yPET-β-arrestin 2 (acceptor), without or with untagged PAR1; AngII, thrombin or both, dose-response 30 min at 37°C or real-time kinetics; antagonists irbesartan or SCH79797 in some; coelenterazine h 2.5 µM; PBS
T1 sequence: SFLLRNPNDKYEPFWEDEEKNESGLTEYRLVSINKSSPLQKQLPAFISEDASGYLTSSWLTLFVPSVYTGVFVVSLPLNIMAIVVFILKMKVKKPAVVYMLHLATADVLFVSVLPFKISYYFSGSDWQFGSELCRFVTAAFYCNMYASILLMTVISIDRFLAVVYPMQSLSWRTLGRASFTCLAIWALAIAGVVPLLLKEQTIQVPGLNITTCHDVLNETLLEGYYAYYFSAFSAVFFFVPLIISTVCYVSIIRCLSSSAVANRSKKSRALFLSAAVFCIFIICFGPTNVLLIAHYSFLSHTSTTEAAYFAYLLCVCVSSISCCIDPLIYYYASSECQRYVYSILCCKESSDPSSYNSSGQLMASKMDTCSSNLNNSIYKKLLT

[3] = molecular target: AT1R-Rluc (AngII type 1 receptor fused to Renilla luciferase) (human) (UniProt P30556); test: as above

binding (HA-AT1R (human)): binds
Molecule: AT1R-Rluc (AngII type 1 receptor fused to Renilla luciferase) (from UniProt P30556 1-359)

binding [2]: binds
Molecule: Venus-Gαq (from UniProt P50148 1-359)

binding [3]: binds
Molecule: yPET-β-arrestin 2 (from UniProt P32121 1-409)

binding (HA-AT1R (human)): binds
B2: PAR1-Rluc (protease-activated receptor 1 fused to Renilla luciferase) (receptor, UniProt P25116 42-425)
chain: T1 sequence

Second part, the molecule before the results:

Molecule: Grb2-Rluc (from UniProt P62993 1-217)
binding (HA-AT1R (human)): no binding

Molecule: Grb2-Venus (from UniProt P62993 1-217)
binding [1]: no binding

B1: PAR1-Venus (receptor, UniProt P25116 42-425)
chain: T1 sequence
binding [1]: binds
